Experimental data published in the supplement of paper PMC8728848.
The other results are listed elsewhere or left out.

How the values were obtained:
Experiment in all cases: glycan array binding signal (z-score within array); higher = stronger binding
Details in all cases: glycan notation: IUPAC condensed, linker removed
[1] = biological target: Neu5Ac(a2-3)Gal(b1-3)[Fuc(a1-4)]GlcNAc(b1-3)Gal(b1-3)[Fuc(a1-4)]GlcNAc
How it was run: (§1)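 From the Consortium for Functional Glycomics database, 3228 arrays were curated, keeping only those whose protein sequence was available. Binding is given as a within-array Z-score averaged across arrays sharing a protein sequence and across linkers. Negative Z-scores can be read as non-binding.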

[2] = biological target: Neu5Ac(a2-3)Gal(b1-3)[Fuc(a1-4)]GlcNAc(b1-3)Gal(b1-4)[Fuc(a1-3)]GlcNAc
How it was run: as §1

[3] = biological target: Neu5Ac(a2-3)Gal(b1-3)[GlcNAc(b1-6)]GalNAc
How it was run: as §1

[4] = biological target: Neu5Ac(a2-3)Gal(b1-3)[Neu5Ac(a2-6)]GalNAc
How it was run: as §1

[5] = biological target: Neu5Ac(a2-3)Gal(b1-3)[Neu5Ac(a2-6)]GlcNAc(b1-3)[Fuc(a1-3)[Gal(b1-4)]GlcNAc(b1-6)]Gal(b1-4)Glc
How it was run: as §1

[6] = biological target: Neu5Ac(a2-3)Gal(b1-3)]Neu5Ac(a2-3)Gal(b1-4)]GlcNAc
How it was run: as §1

[7] = biological target: Neu5Ac(a2-3)Gal(b1-4)Glc
How it was run: as §1

[8] = biological target: Neu5Ac(a2-3)Gal(b1-4)GlcNAc
How it was run: as §1

[9] = biological target: Neu5Ac(a2-3)Gal(b1-4)GlcNAc(b1-2)Man
How it was run: as §1

[10] = biological target: Neu5Ac(a2-3)Gal(b1-4)GlcNAc(b1-2)Man(a1-3)[GlcNAc(b1-4)][Neu5Ac(a2-3)Gal(b1-4)GlcNAc(b1-2)Man(a1-6)]Man(b1-4)GlcNAc(b1-4)GlcNAc
How it was run: as §1

[11] = biological target: Neu5Ac(a2-3)Gal(b1-4)GlcNAc(b1-2)Man(a1-3)[Neu5Ac(a2-3)Gal(b1-4)GlcNAc(b1-2)Man(a1-6)]Man(b1-4)GlcNAc(b1-4)GlcNAc
How it was run: as §1

[12] = biological target: Neu5Ac(a2-3)Gal(b1-4)GlcNAc(b1-2)Man(a1-3)[Neu5Ac(a2-3)Gal(b1-4)GlcNAc(b1-2)Man(a1-6)]Man(b1-4)GlcNAc(b1-4)[Fuc(a1-6)]GlcNAc
How it was run: as §1

[13] = biological target: Neu5Ac(a2-3)Gal(b1-4)GlcNAc(b1-2)Man(a1-3)[Neu5Ac(a2-6)Gal(b1-4)GlcNAc(b1-2)Man(a1-6)]Man(b1-4)GlcNAc(b1-4)GlcNAc
How it was run: as §1

[14] = biological target: Neu5Ac(a2-3)Gal(b1-4)GlcNAc(b1-2)[Neu5Ac(a2-3)Gal(b1-4)GlcNAc(b1-4)]Man(a1-3)[GlcNAc(b1-4)][Neu5Ac(a2-3)Gal(b1-4)GlcNAc(b1-2)[Neu5Ac(a2-3)Gal(b1-4)GlcNAc(b1-6)]Man(a1-6)]Man(b1-4)GlcNAc(b1-4)GlcNAc
How it was run: as §1

[15] = biological target: Neu5Ac(a2-3)Gal(b1-4)GlcNAc(b1-2)[Neu5Ac(a2-3)Gal(b1-4)GlcNAc(b1-4)]Man(a1-3)[GlcNAc(b1-4)][Neu5Ac(a2-3)Gal(b1-4)GlcNAc(b1-4)Man(a1-6)]Man(b1-4)GlcNAc(b1-4)GlcNAc
How it was run: as §1

[16] = biological target: Neu5Ac(a2-3)Gal(b1-4)GlcNAc(b1-2)[Neu5Ac(a2-3)Gal(b1-4)GlcNAc(b1-6)]Man(a1-6)[Neu5Ac(a2-3)Gal(b1-4)GlcNAc(b1-2)Man(a1-3)]Man(b1-4)GlcNAc(b1-4)GlcNAc
How it was run: as §1

[17] = biological target: Neu5Ac(a2-3)Gal(b1-4)GlcNAc(b1-2)[Neu5Ac(a2-3)Gal(b1-4)GlcNAc(b1-6)]Man(a1-6)[Neu5Ac(a2-3)Gal(b1-4)GlcNAc(b1-2)Man(a1-3)][GlcNAc(b1-4)]Man(b1-4)GlcNAc(b1-4)GlcNAc
How it was run: as §1

[18] = biological target: Neu5Ac(a2-3)Gal(b1-4)GlcNAc(b1-3)Gal
How it was run: as §1

[19] = biological target: Neu5Ac(a2-3)Gal(b1-4)GlcNAc(b1-3)Gal(b1-3)GlcNAc
How it was run: as §1

[20] = biological target: Neu5Ac(a2-3)Gal(b1-4)GlcNAc(b1-3)Gal(b1-4)GlcNAc
How it was run: as §1

[21] = biological target: Neu5Ac(a2-3)Gal(b1-4)GlcNAc(b1-3)Gal(b1-4)GlcNAc(b1-2)Man(a1-3)[Neu5Ac(a2-3)Gal(b1-4)GlcNAc(b1-3)Gal(b1-4)GlcNAc(b1-2)Man(a1-6)]Man(b1-4)GlcNAc(b1-4)GlcNAc
How it was run: as §1

[22] = biological target: Neu5Ac(a2-3)Gal(b1-4)GlcNAc(b1-3)Gal(b1-4)GlcNAc(b1-3)Gal(b1-4)GlcNAc
How it was run: as §1

[23] = biological target: Neu5Ac(a2-3)Gal(b1-4)GlcNAc(b1-3)Gal(b1-4)GlcNAc(b1-3)Gal(b1-4)GlcNAc(b1-2)Man(a1-3)[Neu5Ac(a2-3)Gal(b1-4)GlcNAc(b1-3)Gal(b1-4)GlcNAc(b1-3)Gal(b1-4)GlcNAc(b1-2)Man(a1-6)]GalNAc
How it was run: as §1

[24] = biological target: Neu5Ac(a2-3)Gal(b1-4)GlcNAc(b1-3)Gal(b1-4)GlcNAc(b1-3)GalNAc
How it was run: as §1

[25] = biological target: Neu5Ac(a2-3)Gal(b1-4)GlcNAc(b1-3)Gal(b1-4)GlcNAc(b1-3)[Neu5Ac(a2-3)Gal(b1-4)GlcNAc(b1-3)Gal(b1-4)GlcNAc(b1-6)]GalNAc
How it was run: as §1

[26] = biological target: Neu5Ac(a2-3)Gal(b1-4)GlcNAc(b1-3)Gal(b1-4)GlcNAc(b1-6)[Gal(b1-3)]GalNAc
How it was run: as §1

[27] = biological target: Neu5Ac(a2-3)Gal(b1-4)GlcNAc(b1-3)Gal(b1-4)[Fuc(a1-3)]GlcNAc
How it was run: as §1

[28] = biological target: Neu5Ac(a2-3)Gal(b1-4)GlcNAc(b1-3)GalNAc
How it was run: as §1

[29] = biological target: Neu5Ac(a2-3)Gal(b1-4)GlcNAc(b1-3)[Neu5Ac(a2-3)Gal(b1-4)GlcNAc(b1-6)]GalNAc
How it was run: as §1

[30] = biological target: Neu5Ac(a2-3)Gal(b1-4)GlcNAc(b1-6)GalNAc
How it was run: as §1

[31] = biological target: Neu5Ac(a2-3)Gal(b1-4)GlcNAc(b1-6)[Gal(b1-3)]GalNAc
How it was run: as §1

[32] = biological target: Neu5Ac(a2-3)Gal(b1-4)GlcNAc(b1-6)[Neu5Ac(a2-3)Gal(b1-3)]GalNAc
How it was run: as §1

[33] = biological target: Neu5Ac(a2-3)Gal(b1-4)GlcNAc6S
How it was run: as §1

[34] = biological target: Neu5Ac(a2-3)Gal(b1-4)[Fuc(a1-3)]GlcNAc
How it was run: as §1

[35] = biological target: Neu5Ac(a2-3)Gal(b1-4)[Fuc(a1-3)]GlcNAc(b1-2)Man
How it was run: as §1

[36] = biological target: Neu5Ac(a2-3)Gal(b1-4)[Fuc(a1-3)]GlcNAc(b1-3)Gal
How it was run: as §1

[37] = biological target: Neu5Ac(a2-3)Gal(b1-4)[Fuc(a1-3)]GlcNAc(b1-3)Gal(b1-4)GlcNAc
How it was run: as §1

[38] = biological target: Neu5Ac(a2-3)Gal(b1-4)[Fuc(a1-3)]GlcNAc(b1-3)Gal(b1-4)[Fuc(a1-3)]GlcNAc(b1-3)Gal(b1-4)[Fuc(a1-3)]GlcNAc
How it was run: as §1

[39] = biological target: Neu5Ac(a2-3)Gal(b1-4)[Fuc(a1-3)]GlcNAc(b1-3)GalNAc
How it was run: as §1

[40] = biological target: Neu5Ac(a2-3)Gal(b1-4)[Fuc(a1-3)]GlcNAc(b1-6)[Gal(b1-3)]GalNAc
How it was run: as §1

[41] = biological target: Neu5Ac(a2-3)Gal(b1-4)[Fuc(a1-3)]GlcNAc(b1-6)[Neu5Ac(a2-3)Gal(b1-3)]GalNAc
How it was run: as §1

[42] = biological target: Neu5Ac(a2-3)Gal(b1-4)[Fuc(a1-3)]GlcNAc6S
How it was run: as §1

[43] = biological target: Neu5Ac(a2-3)Gal6S(b1-4)GlcNAc
How it was run: as §1

[44] = biological target: Neu5Ac(a2-3)Gal6S(b1-4)[Fuc(a1-3)]GlcNAc
How it was run: as §1

[45] = biological target: Neu5Ac(a2-3)GalNAc
How it was run: as §1

B1: Fm1D (Escherichia coli) (protein)
chain: FSCNVDGGSSIGAGTTSVYVNLDPVIQPGQNLVVDLSQHISCWNDYGGWYDTDHINLVQGSAFAGSLQSYKGSLYWNNVTYPFPLTTNTNVLDIGDKTPMPLPLKLYITPVGAAGGVVIKAGEVIARIHMYKIATLGSGNPRNFTWNIISNNSVVMPTHHHHHH
glycan array binding signal (z-score) [1]: -0.131
glycan array binding signal (z-score) [2]: -0.142
glycan array binding signal (z-score) [3]: -0.141
glycan array binding signal (z-score) [4]: -0.142
glycan array binding signal (z-score) [5]: -0.146
glycan array binding signal (z-score) [6]: -0.136
glycan array binding signal (z-score) [7]: -0.141
glycan array binding signal (z-score) [8]: -0.145
glycan array binding signal (z-score) [9]: -0.14
glycan array binding signal (z-score) [10]: -0.145
glycan array binding signal (z-score) [11]: -0.147
glycan array binding signal (z-score) [12]: -0.144
glycan array binding signal (z-score) [13]: -0.144
glycan array binding signal (z-score) [14]: -0.147
glycan array binding signal (z-score) [15]: -0.144
glycan array binding signal (z-score) [16]: -0.137
glycan array binding signal (z-score) [17]: -0.144
glycan array binding signal (z-score) [18]: -0.146
glycan array binding signal (z-score) [19]: -0.149
glycan array binding signal (z-score) [20]: -0.14
glycan array binding signal (z-score) [21]: -0.145
glycan array binding signal (z-score) [22]: -0.144
glycan array binding signal (z-score) [23]: -0.134
glycan array binding signal (z-score) [24]: -0.15
glycan array binding signal (z-score) [25]: -0.14
glycan array binding signal (z-score) [26]: 1.11
glycan array binding signal (z-score) [27]: -0.146
glycan array binding signal (z-score) [28]: -0.145
glycan array binding signal (z-score) [29]: -0.141
glycan array binding signal (z-score) [30]: -0.143
glycan array binding signal (z-score) [31]: 5.29
glycan array binding signal (z-score) [32]: -0.14
glycan array binding signal (z-score) [33]: -0.145
glycan array binding signal (z-score) [34]: -0.145
glycan array binding signal (z-score) [35]: -0.14
glycan array binding signal (z-score) [36]: -0.145
glycan array binding signal (z-score) [37]: -0.14
glycan array binding signal (z-score) [38]: -0.102
glycan array binding signal (z-score) [39]: -0.137
glycan array binding signal (z-score) [40]: 0.585
glycan array binding signal (z-score) [41]: -0.141
glycan array binding signal (z-score) [42]: -0.147
glycan array binding signal (z-score) [43]: -0.144
glycan array binding signal (z-score) [44]: -0.141
glycan array binding signal (z-score) [45]: -0.148
